Out of some 94,000 compounds screened, about 4,000 (4.3%) were called active. This list was built around the results that the source calls inconclusive (neither active nor inactive); the mix of calls is not that of the screen. Calls come from the whole dose curve; as a rule, active = well fitted inhibition curve with a large enough effect; inconclusive = small, poorly fitted or top-dose-only effect; inactive = no such curve, though single readings can be large or run the other way. Where the call is inconclusive, the potency comes from a doubtful curve fit.
Test: Cytotoxic Profiling in NIH 3T3 Cell Line of Diverse Libraries Using Quantitative High-Throughput Screening; note: nearly all actives have a fitted effect of over 55% in size
Details: NIH 3T3 viability, CellTiter-Glo ATP luminescence, 48-72 h; activity change, negative = cytotoxicity: at 96.7 µM (top of the series); series mostly up to 96.7 µM
How it was run: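 Cytotoxicity was measured by CellTiter-Glo ATP luminescence after 48 or 72 h compound exposure at 37 °C. Mouse NIH 3T3 fibroblasts were seeded at 400 cells/well and dosed by 23 nL pin transfer.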
% is set by controls: 0 for no effect and ±100 for the full control effect; potency is the fitted concentration of half-maximal effect; tags give direction and shape of the fitted curve.

| SMILES | Potency | activity change, negative = cytotoxicity | outcome |
| --- | --- | --- | --- |
| Cc1ccc(C)c(-c2cc3c(=O)n(CCNC(=O)c4ccccc4F)ccn3n2)c1 | inconclusive: 35.5 µM [inhibitor, partial curve, poor fit] |  |  |
| Cc1cccc(CC(=O)N2CCCn3cc(-c4cccc(C#N)c4)nc32)c1 | inconclusive: 50.1 µM [inhibitor, single point] |  |  |
| Cn1cc(CN2C[C@H](C(=O)NCc3cccc(F)c3)C[C@H]2c2cccc(C(F)(F)F)c2)cn1 | inconclusive: 50.1 µM [inhibitor, partial curve, poor fit] |  |  |
| Fc1ccc(CN2CC(N3CCc4ccccc43)C2)cc1 |  | inactive: -10.3% [at 138 µM] |  |
| COc1ccc(CN2CC(N(C)c3ccccc3C)C2)cc1 | active: 79.4 µM |  |  |
| N#Cc1ccc(CN2CCC(c3nn(Cc4ccccc4)c(=O)[nH]3)CC2)cc1 | inconclusive: 70.8 µM [inhibitor, single point] |  |  |
| c1ccc2oc(-c3ccnc4nc(C5CCC5)nn34)cc2c1 | inconclusive: 50.1 µM [inhibitor, partial curve, poor fit] |  |  |
| COc1ccc(F)cc1-c1nc2ccc(-c3ccc(OC)c(OC)c3OC)cc2o1 | inconclusive: 44.7 µM [inhibitor, partial curve, poor fit] |  |  |
| CCN1CC2(CCN(C(=O)CC(Cc3ccccc3)c3ccco3)CC2)CC1=O (configuration not stated) | inconclusive: 39.8 µM [inhibitor, full curve] |  |  |
| O=C(c1ccc(Cl)cc1)N1CCCC(C(=O)N2CCC(c3nc4ncccc4[nH]3)C2)C1 (configuration not stated) |  | inactive: -1.83% |  |
| COc1ccc(-c2ccc3nnc(CNC(=O)COc4cccc(C)c4)n3n2)cc1 | inconclusive: 39.8 µM [inhibitor, partial curve, poor fit] |  |  |
| CN(Cc1nc(-c2ccccc2)cs1)C(=O)c1cccc(-n2cnnc2)c1 | inconclusive: 89.1 µM [inhibitor, single point] |  |  |
| O=C(NC1CCCCC1)O[C@@H]1CO[C@H]2[C@@H]1OC[C@@H]2n1nnnc1SCc1ccco1 |  | inactive: -1.02% |  |
| CN(CC1CCOC1)C(=O)NCc1ccc(F)cc1 (configuration not stated) | inconclusive: 25.1 µM [inhibitor, single point] |  |  |
| CCN(CC)CC[C@H]1CN(C(=O)NC2CCCCC2)CC[C@H]1CC(=O)O |  |  | inactive [at 174 µM] |
| COc1ccccc1CCC(=O)N1CCc2nn(C)c(=O)n2CC1 |  | inactive: -4.43% |  |
| CCCCNC(=O)CC(c1cccc(OC)c1OC)c1c[nH]c2ccccc12 (configuration not stated) | inconclusive: 44.7 µM [inhibitor, partial curve, poor fit] |  |  |
| O=C(CN1CCCCCCC1)N1CCn2nc(Cc3ccccc3)cc2C1 | inconclusive: 44.7 µM [inhibitor, partial curve] |  |  |
| O=C(O)c1cccc(-c2cnc3ccccc3c2)c1 |  | inactive: -14.2% [at 138 µM] |  |
| COc1ccc(C(=O)N2C[C@@H]3OCC(=O)N(CC4CC4)[C@@H]3C2)cc1 |  | inactive: -4.28% [at 174 µM] |  |
| COCc1nnc(NC(=O)C2c3ccccc3C(=O)N(C3CCCC3)C23CCCC3)s1 (configuration not stated) | inconclusive: 56.2 µM [inhibitor, partial curve, poor fit] |  |  |

| SMILES | Potency | activity change, negative = cytotoxicity | outcome |
| --- | --- | --- | --- |
| COc1ccc(OC)c(CN2CCNc3cc(-c4ccnc(C)c4)ncc3C2)c1 | inconclusive: 56.2 µM [inhibitor, partial curve, poor fit] |  |  |
| O=C1CCc2cc(NC(=O)c3cccc(C(F)(F)F)c3)ccc2N1 | inconclusive: 44.7 µM [inhibitor, partial curve, poor fit] |  |  |
| O=C(CCc1cc2ccccc2[nH]c1=O)NCCN1CCc2ccccc2C1 |  | inactive: 1.94% |  |
| O=C1CN(C(=O)c2ccc(Cl)cc2)CC(O)CN1CCCc1ccccc1 (configuration not stated) | inconclusive: 50.1 µM [inhibitor, partial curve, poor fit] |  |  |
| O=C(N1CCN(S(=O)(=O)c2ccc3c(c2)CCC3)CC1)N1CC2CC(C1)[C@H]1CCCC(=O)N1C2 (some centres not stated) | inconclusive: 70.8 µM [inhibitor, partial curve, poor fit] |  |  |
| O=C(Nc1cccnc1)[C@@H]1C[C@@H](c2ccc(F)cc2)N(CCOc2ccccc2)C1 | active: 89.1 µM |  |  |
| CC(C)N[C@H]1CC(C)(C)[C@@H]2C[C@@](C)(O)CC[C@]12CCC(=O)NCCc1c[nH]c2ccccc12 | inconclusive: 79.4 µM [inhibitor, partial curve, poor fit] |  |  |
| CCCn1c(C)cnc1CC1CCN(S(=O)(=O)c2cccs2)CC1 | inconclusive: 50.1 µM [inhibitor, partial curve, poor fit] |  |  |
| Cc1ccc(C(=O)N2CCCC3(C2)Nc2cccnc2NC3=NC2CCCC2)cc1F (configuration not stated) | inconclusive: 70.8 µM [inhibitor, single point] |  |  |
| CCC(C)NC(=O)c1ccc(-c2nnc3ccc(NC(=O)C4CC4)cn23)cc1 (configuration not stated) | inconclusive: 39.8 µM [inhibitor, partial curve, poor fit] |  |  |
| COc1ccc(-c2noc([C@@H]3C[C@@H](O)CN3Cc3cccc(C#N)c3)n2)cc1 |  | inactive: -25.8% [at 138 µM] |  |
| O=C(c1ccc(F)cc1)N1CCc2nc(-c3ccc(Cl)cc3)nc(-c3ccccc3)c2C1 | inconclusive: 70.8 µM [inhibitor, partial curve, poor fit] |  |  |
| NC(=O)c1ccc2c(c1)C1(CCN(CC3CC3)C1)CN2Cc1ccccc1 (configuration not stated) | inconclusive: 100 µM [inhibitor, single point] |  |  |
| CC(C)CNC(=O)N1CCC(c2noc(-c3ccccc3)n2)C1 (configuration not stated) | inconclusive: 44.7 µM [inhibitor, partial curve, poor fit] |  |  |
| CC1(C)C(=O)N(Cc2ccc(O)cc2)[C@H]2CN(CCCc3ccccc3)C[C@H]2[S+]1(=O)[O-] | inconclusive: 50.1 µM [inhibitor, partial curve, poor fit] |  |  |
| COCC1CN(C2CCC2)CC12CCN(C(=O)c1ccc(C#N)cc1)CC2 (configuration not stated) |  | inactive: -26.5% |  |
| c1ccc2c(c1)CCN2C1CN(Cc2ccsc2)C1 | inconclusive: 35.5 µM [inhibitor, partial curve, poor fit] |  |  |
| CCOc1cccc(CN2CC(Oc3ccc(-c4noc(COC)n4)cc3)C2)c1 | inconclusive: 50.1 µM [inhibitor, partial curve, poor fit] |  |  |
| O=C(Nc1cc(-c2ccncc2)nn1-c1ccccc1)c1ccccc1 | inconclusive: 50.1 µM [inhibitor, single point] |  |  |
| O=C(Nc1cccc(-c2ccc(F)cc2)c1)C1CCCN(C(=O)c2cccnc2)C1 (configuration not stated) | inconclusive: 50.1 µM [inhibitor, partial curve, poor fit] |  |  |
| CCN1C(=O)CCC2(C(=O)NCC3CC3)CCCC=C12 (configuration not stated) |  | inactive: -2.89% |  |

| SMILES | Potency | activity change, negative = cytotoxicity | outcome |
| --- | --- | --- | --- |
| COCCCNC(=O)C1CCN(C(=O)c2ccc(-c3cccs3)cc2)CC1 | inconclusive: 70.8 µM [inhibitor, partial curve, poor fit] |  |  |
| COc1ccc(C)cc1Nc1nc(-c2ccc(OC)c(OC)c2)no1 | inconclusive: 50.1 µM [inhibitor, partial curve, poor fit] |  |  |
| CC(C)NC[C@H]1COCc2nc3cc(S(C)(=O)=O)ccc3n21 |  | inactive: -13.2% [at 138 µM] |  |
| COc1ccccc1C(=O)N1CCC(Cc2nc(-c3ccccc3)no2)CC1 | inconclusive: 39.8 µM [inhibitor, partial curve] |  |  |
| Cc1ccc2c(c1)nc1n2[C@@H](CNS(=O)(=O)Cc2ccccc2)COC1 | inconclusive: 56.2 µM [inhibitor, partial curve] |  |  |
| Cc1ccc(C(=O)NC2CCCN(c3ccc4nnc(C5CC5)n4n3)C2)cc1 (configuration not stated) | inconclusive: 50.1 µM [inhibitor, partial curve, poor fit] |  |  |
| COc1ccc(C(=O)NC2CCN(c3cc(-c4ccc(F)cc4)[nH]n3)C2)cc1 (configuration not stated) | inconclusive: 44.7 µM [inhibitor, partial curve, poor fit] |  |  |
| CC(C)NC(=O)[C@@H]1C[C@@H](NC(=O)c2cnc3c(O)cccn3c2=O)CN1C | inconclusive: 50.1 µM [inhibitor, partial curve, poor fit] |  |  |
| COc1ccc(/C=C/CN2CC(=O)N(c3ccccc3C#N)CC2C)cc1 (configuration not stated) | inconclusive: 79.4 µM [inhibitor, partial curve, poor fit] |  |  |
| Cc1nc(C)c(C(=O)N2CCC(c3noc(-c4cnccn4)n3)C2)s1 (configuration not stated) |  | inactive: -8.62% |  |
| O=C(c1cc2ccccc2o1)N1CCC2(CCCN(Cc3ccccc3F)C2)C1 (configuration not stated) | inconclusive: 89.1 µM [inhibitor, partial curve, poor fit] |  |  |
| CCN1Cc2nc(OC)c(CNC(=O)C(C)n3cc(C)cn3)cc2C1=O (configuration not stated) |  | inactive: -13.6% |  |
| COC(=O)[C@@H]1Cc2ncn(Cc3ccc(Cl)cc3)c2CN1C(=O)c1ccco1 | inconclusive: 126 µM [inhibitor, single point] |  |  |
| Fc1cccc(CN2CCNc3cnc(OCc4cccnc4)cc3C2)c1 | inconclusive: 56.2 µM [inhibitor, partial curve, poor fit] |  |  |
| O=C(c1ccccc1F)N1CCN(CCn2nc3n(c2=O)CCCC3)CC1 |  | inactive: 1.44% |  |
| CCN1C(=O)C(CC(=O)NC2CCCCC2)Sc2ncccc21 (configuration not stated) |  | inactive: 1.92% |  |
| Cn1cc(CN2Cc3c(cc(N4CCOCC4)nc3-c3cccnc3)C2=O)cn1 | inconclusive: 28.2 µM [inhibitor, partial curve, poor fit] |  |  |
| Cc1ccc(NC(=O)Cn2c(-c3cnccn3)nc(C)c(C)c2=O)cc1Cl | inconclusive: 70.8 µM [inhibitor, single point] |  |  |
| COc1cccc(CN2Cc3nc(-c4ccncc4)ccc3OCC2=O)c1 | inconclusive: 44.7 µM [inhibitor, partial curve, poor fit] |  |  |
| COc1cccc(-c2ccc(C(=O)N3CCC(C(=O)N4CCCCC4)CC3)cc2)c1 | inconclusive: 44.7 µM [inhibitor, partial curve, poor fit] |  |  |
